Among all 340,000 compounds or so, about 6,900 (2%) were called active. No stated cut-off is given here; in the data, active means inhibition above about 30%; inactive means below that, where a call was filed. Only a part is listed here, and it is no random draw. Entries without a call were filed so in the source.

What is called inhibition is the change of the read-out against control, counted positive when it falls.

The test deals with D(2) dopamine receptor (Homo sapiens) (UniProt P14416). The experiment in a line: HTS Assay for Allosteric Antagonists of the Human D2 Dopamine Receptor: Primary Screen for Antagonists. Further: 0% is about no effect. To be noted: HEK293 TREx D2 cells, calcium flux, dopamine EC80; at 10 µM; stronger effect = higher value. Put shortly: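 Calcium flux kinetic readout in an inducible HEK293 TREx D2 line plated overnight at 30 C. After 180 s compound exposure, an EC80 dopamine challenge follows with another 180 s kinetic read to detect antagonism.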
Chain of UniProt P14416 (P14416 whole entry, looked up): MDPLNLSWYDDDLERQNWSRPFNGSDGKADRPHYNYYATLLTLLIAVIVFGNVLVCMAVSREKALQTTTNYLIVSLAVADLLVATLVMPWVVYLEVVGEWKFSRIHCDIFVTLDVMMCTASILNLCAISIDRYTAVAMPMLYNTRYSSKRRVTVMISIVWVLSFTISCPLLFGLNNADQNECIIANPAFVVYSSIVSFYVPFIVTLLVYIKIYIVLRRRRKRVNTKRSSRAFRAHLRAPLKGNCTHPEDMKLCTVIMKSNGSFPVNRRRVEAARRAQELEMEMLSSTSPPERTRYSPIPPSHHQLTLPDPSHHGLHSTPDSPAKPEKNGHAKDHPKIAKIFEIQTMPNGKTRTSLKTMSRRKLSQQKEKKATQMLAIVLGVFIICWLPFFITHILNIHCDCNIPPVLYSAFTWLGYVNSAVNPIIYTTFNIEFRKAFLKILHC
Background: Calcium flux is commonly read through the fluorescence of an indicator in the cells.
As to `CCCn1ccc2c(OCC(=O)Nc3ccc(OC)c(OC)c3)cccc2c1=O`, the inhibition came to 8.51%.
With `O=C(NCCc1ccc(F)cc1)C(=O)NCC(c1cccs1)S(=O)(=O)c1ccccc1` (stereo unspecified), the inhibition stood at 8.45%.
For the compound `COc1ccccc1CNC(=O)c1ccc(CSc2nc3ccncc3n2Cc2cccc(F)c2)cc1`, the inhibition was 12.6%.
The result for `Cc1ccc(CNC(=O)C(C)n2c(=O)cc(-c3ccccc3)c3c(C)nn(C)c32)cc1` (stereo unspecified) reads 6.03%.
In the case of `Cc1ccc2nc(-c3c[nH]c4ccccc34)c(Nc3ccc(F)cc3)n2c1`, the inhibition came out at 12.6%.
`O=C(CCS(=O)(=O)c1cccc2nonc12)Nc1ccc(F)cc1F`: the inhibition was found to be 3.33%.
Regarding `COc1ccc(Br)cc1CNC(=O)Cn1ncn2nc(-c3cccs3)cc2c1=O`, the inhibition was 21.6%.
As to `Cc1oc(-c2ccccc2Cl)nc1CSc1nncn2c1cc1occc12`, the inhibition is -2.4%.
On to `COc1ccccc1N1CCN(C(=O)c2ccc3c(c2)CCN3S(=O)(=O)c2ccccc2)CC1`, for which the inhibition came to 12.6%.
Take `CCc1c(C)nc2nc(-c3ccccc3)nn2c1NCc1ccc(C)cc1`: the inhibition is -4.34%.
With `COc1cccc2[nH]c(C(=O)NCc3ccc4c(c3)CCN4C(=O)c3ccc(F)cc3)cc12`, the inhibition was 3.88%.
`COc1ccc(CNC(=O)c2ccc(-c3nc(CS(=O)c4ccc(C)cc4)c(C)o3)cc2)cc1` (stereo unspecified): the inhibition amounted to 1.52%.
In the case of `COc1ccc2c(c1)c(=O)c(C(=O)c1ccc(Cl)cc1)cn2CC(=O)Nc1ccc2c(c1)OCCO2`, the inhibition turned out to be 19.1%.
Regarding `Cc1oc2ccc(O)c(CN3CCCC(C)C3)c2c1C(=O)Nc1ccccc1` (stereo unspecified), the inhibition is -1.42%.
As to `O=C1CC2(CCCC2)CC(=O)N1CCCCN1CCN(c2ncccn2)CC1`, the inhibition is active: 87.9%.
With `O=C(CSc1cn(CCNC(=O)c2c(F)cccc2F)c2ccccc12)Nc1ccccc1F`, the inhibition was -3.38%.
`COc1ccc(Cn2c(CCC(=O)Nc3ccccc3OC)nc3cccnc32)cc1`: the inhibition was -8.45%.
Turning to `CC(=O)Nc1ccc(NC(=O)C2Cc3ccccc3N2C(=O)c2ccccc2)cc1` (stereo unspecified), the inhibition worked out at 12.8%.
For `Cc1ccc(OC(=O)CSc2nnc(-c3cccs3)o2)c(C)c1`, the inhibition came out at 10.2%.
With `CC1=C(C(=O)OC2CCCCCC2)C(c2ccc(Cl)cc2)CC(=O)N1` (stereo unspecified) the figure was 10.4%.
With `COc1ccc(Cl)cc1C(=O)NCc1nc(-c2cccc(C)c2)no1`, the inhibition was determined as 13.3%.
For the compound `O=C(c1ccc([N+](=O)[O-])cc1)N1c2ncnn2C2(CCCCC2)[C@@H]2CCCC[C@@H]21`, the inhibition was found to be 3.97%.
Take `Cc1cc(C)c(NC(=O)Cc2ccc(-n3c(C)nc4cccnc43)cc2)c(C)c1`: the inhibition was -6.04%.
Turning to `CCOc1cc(C2C(C(=O)OC)=C(C)NC3=C2C(=O)c2ccccc23)cc(Br)c1OCC` (stereo unspecified), the inhibition is -8.14%.
Turning to `Cc1ccc(-c2nc3c(c(SCC(=O)Nc4cccc(C(=O)O)c4)n2)Cc2cccc(C)c2O3)cc1`, the inhibition was -0.959%.
For the compound `CCCc1cc(=O)[nH]c(SCC(=O)NC(=O)NC2CCCC2)n1`, the inhibition was active: 32.1%.
Regarding `CCN(CC)CCNC(=O)c1ccc2c(=O)n3nc(Nc4ccccc4)sc3nc2c1`, the inhibition is -11%.
`CC1=C(C(=O)Nc2cccc(C(F)(F)F)c2)C2(CCN(C(C)C)CC2)OC1=O`: the inhibition is -6.41%.
The result for `COc1ccc(-c2nc3ccccc3o2)cc1NC(=O)c1ccc(-c2cccc(Cl)c2C)o1` reads -0.719%; that for `Cc1ccc(Cl)cc1N1CCN(C(=O)COCc2cc(-c3ccc4c(c3)OCO4)on2)CC1`, 5.02%; that for `Cc1c(-c2nc(-c3ccc4c(c3)OCO4)no2)nnn1-c1cccc(C(F)(F)F)c1`, 13.8%.
With `COc1cccc(NC(=O)C2CCN(c3nnc(-n4c(C)ccc4C)s3)CC2)c1` the figure was 2.58%; with `COc1ccccc1NC(=O)NCc1ccc2c(c1)OCO2`, active: 32.6%.
On to `CSCCC(NC(=O)c1ccco1)C(=O)OC(C)C(=O)NC(=O)NC1CCCCC1` (stereo unspecified), for which the inhibition is active: 49.3%.
Turning to `COc1ccc(CCNC(=O)CCn2c(=O)c3ccccc3n(Cc3ccccc3C)c2=O)cc1OC`, the inhibition is -10.1%.
As for `O=C(Nc1ccc(OC(F)(F)F)cc1)C1CC(=O)N(Cc2ccco2)C1` (stereo unspecified), the inhibition is active: 47.3%.
The result for `CCCNC(=O)CSc1cn(CC(=O)N2CCCCCC2)c2ccccc12` reads 11%; that for `CCOc1ccc(-c2nnc(SCC(=O)Nc3cccc(Cl)c3C)o2)cc1`, 11.7%; that for `O=C(CSc1nc2sc3c(c2c(=O)[nH]1)CCCC3)Nc1ccccc1F`, -14.5%.
For `Cc1ccc(NC(=O)CCn2cnc3onc(-c4ccc(F)cc4)c3c2=O)c(Br)c1`, the inhibition was 7.26%.
As for `CC(C)Oc1ccc(CNS(=O)(=O)c2ccc(-c3cc(C(F)(F)F)on3)s2)cc1`, the inhibition stood at 6.68%.
As to `Cc1ccc2nc(CN3CCN(S(=O)(=O)c4ccc(F)cc4)CC3)oc2c1`, the inhibition is 2.92%.
Consider `Cc1ccc2oc(C(=O)Nc3ccc(S(=O)(=O)Nc4nc(C)cc(C)n4)cc3)cc(=O)c2c1`, for which the inhibition turned out to be 14.1%.
As to `COc1ccc(NC(=O)C2CCCN2S(=O)(=O)c2ccc(F)cc2)cc1` (stereo unspecified), the inhibition is active: 30.4%.
As to `Cc1ccc(C(C)C)cc1NC(=O)Nc1ccc([N+](=O)[O-])cc1`, the inhibition is active: 37.4%.
The result for `CCOc1ccc(Nc2c3c(nc4nncn24)CCC3)cc1` reads 15.8%; that for `O=C(NCCc1ccccc1)c1cc(-c2ccc(Cl)c(Cl)c2)on1`, -9.45%.
With `Cc1c(CC(=O)NCc2ccccc2Cl)c(=O)oc2cc(O)ccc12` the figure was 18.1%.
`COc1cc(OC)cc(N2C(=O)CSC23C(=O)Nc2ccccc23)c1` (stereo unspecified): the inhibition worked out at 5.03%.
Regarding `COc1ccc(C(=O)OCc2cc(=O)n3nc(C4CC4)sc3n2)cc1OC`, the inhibition was -3.9%.
Turning to `O=C(Nc1ccc(C(=O)OCc2cc(=O)n3c4c(sc3n2)CCCC4)cc1)c1cccc(F)c1`, the inhibition is -14.2%.
Turning to `Cc1cccc(C(=O)Nc2ccccc2OCc2cc(=O)n3c(C)csc3n2)c1`, the inhibition is -3.26%.
As for `COc1ccc(CCNc2nc3c(c(=O)n(C)c(=O)n3C)n2Cc2ccccc2Cl)cc1OC`, the inhibition was determined as 1.61%.
Regarding `O=C(Cn1cc(S(=O)(=O)Cc2ccccc2F)c2ccccc21)NCc1ccccc1`, the inhibition came out at 20.4%.
As to `Cc1csc2nc(-c3cccc(NC(=O)c4c(F)cccc4F)c3)cn12`, the inhibition is 12%.
In the case of `CN1C(=O)c2ccccc2Sc2ccc(NC(=O)c3ccc(C#N)cc3)cc21`, the inhibition is -14.8%.
Turning to `COC(=O)C(CCSC)NC(=O)c1cc2c(n(-c3ccccc3)c1=O)CC(C)(C)CC2=O` (stereo unspecified), the inhibition worked out at 16.4%.
As for `COc1ccc(-c2cc(C(=O)Nc3c(C)n(C)n(-c4ccccc4)c3=O)no2)cc1`, the inhibition was 19.2%.
Turning to `Cc1cc2oc(C(=O)Nc3c(C)n(C)n(-c4ccccc4)c3=O)cc(=O)c2cc1C`, the inhibition was 3.67%.
As to `CCOC(=O)Cn1c(=O)n(-c2ccc(Cl)cc2)c2nc(-c3ccc(Cl)cc3)nc(C(N)=O)c21`, the inhibition is -1.04%.
With `O=C(NCCCc1nc2ccccc2n1Cc1ccccc1F)c1ccco1` the figure was -3.19%.

The values above are taken from PubChem BioAssay AID485344 (National Center for Advancing Translational Sciences (NCATS), 2010).
